Experimental data taken from PubChem BioAssay AID1159614 (National Center for Advancing Translational Sciences (NCATS), 2016).
In all, about 45,000 compounds went through this assay and about 65 (0.1%) were called active. Calls follow the shape of the dose curve; as a rule, active = well fitted activation curve with a large enough effect; inconclusive = small, poorly fitted or top-dose-only effect; inactive = no such curve, though single readings can be large or run the other way. This is one part of the list.

target: Galactocerebrosidase (Homo sapiens) (UniProt P54803); test: A Novel Cell-Based Assay to Identify Small Molecules for B -Galactocerebrosidase; settings: 145M-Twi-hGALC-G270D cells (Twitcher mouse brain line with human GALC G270D), HMU-beta-Gal fluorescence, 48 h; series mostly up to 57.5 µM; activation: at the top concentration; also: 0% is about no effect; nearly all actives have a fitted effect of over 65% in size
UniProt P54803, sequence (P54803 whole entry, looked up): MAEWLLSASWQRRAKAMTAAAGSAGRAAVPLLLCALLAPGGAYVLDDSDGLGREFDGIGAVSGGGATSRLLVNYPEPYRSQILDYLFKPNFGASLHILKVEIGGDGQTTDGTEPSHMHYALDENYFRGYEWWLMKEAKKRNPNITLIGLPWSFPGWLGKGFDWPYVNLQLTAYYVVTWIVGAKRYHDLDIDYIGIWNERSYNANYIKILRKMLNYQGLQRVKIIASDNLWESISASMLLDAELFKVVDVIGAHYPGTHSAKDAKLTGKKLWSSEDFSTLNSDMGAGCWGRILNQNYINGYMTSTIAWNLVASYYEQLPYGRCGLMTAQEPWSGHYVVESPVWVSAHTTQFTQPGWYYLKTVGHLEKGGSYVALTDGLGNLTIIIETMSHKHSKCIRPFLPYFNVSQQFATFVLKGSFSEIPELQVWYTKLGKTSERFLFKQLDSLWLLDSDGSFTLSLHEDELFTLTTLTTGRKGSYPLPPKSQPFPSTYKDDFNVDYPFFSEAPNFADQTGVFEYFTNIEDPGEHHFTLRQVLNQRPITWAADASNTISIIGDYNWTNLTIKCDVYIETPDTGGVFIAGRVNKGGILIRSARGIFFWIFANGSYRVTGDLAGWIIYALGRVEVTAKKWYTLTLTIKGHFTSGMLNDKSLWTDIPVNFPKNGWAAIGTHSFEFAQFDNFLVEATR
Summary of the method: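 Fluorogenic HMU-b-Gal hydrolysis (0.1 mM final, pH 5.2 citrate-phosphate with 1 mg/mL sodium taurocholate; carbonate stop buffer) measures mutant GALC activity after compound treatment of live 145M-Twi Twitcher brain cells stably carrying human GALC-G270D, with wild-type GALC line alongside; activation sought.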

activation, inactive:
CCOC(=O)c1c(SCC(=O)Nc2nc3ccccc3s2)nc(=O)[nH]c1C -11.3%, Cc1ccc(CNC(=O)CCC(=O)N2CC(C)Sc3ccccc32)cc1 (stereo not given) -12.9%, CCCCn1c(CNC(=O)c2ccc(OC)cc2)nnc1SCC(=O)Nc1ccccc1 -1.22%, Cc1ccc(NC(=O)c2cc3c(=O)[nH]c4ccccc4c3n2C)cc1F -20.3%, COc1ccc(-c2cc(C(C)=O)c(C)n2CCC(=O)NCc2ccc(F)cc2)cc1 -13.7%, CCOC(=O)c1cccc(NC(=O)CCCn2c(C)c3cnn(-c4ccccc4)c(=O)c3c2C)c1 -6.31%, COc1cc(C2CC(=O)Nc3c2c(=O)n(C)c(=O)n3C)cc(OC)c1OC (stereo not given) -9.69%, Cc1cccc(-n2ncc(C(=O)N3CCC(C)CC3)c2C2CCN(C(=O)OC(C)(C)C)CC2)c1 -7.67%, CCOC(=O)c1c(S(=O)(=O)NCC(=O)N2CCN(c3ccccc3OC)CC2)c(C)n(C)c1C -6.05%, CC(=O)c1cccc(NS(=O)(=O)c2c(C)nc3sc(C)cn3c2=O)c1 -10.5%, CCN(CC)c1cc2c(cc1F)c(=O)c(S(=O)(=O)c1ccccc1)cn2Cc1ccccc1 -11.2%, COc1ccc(CCNC(=O)NCc2noc3ccc(C)cc23)c(OC)c1 -18.8%, CC[C@]12CCCN3CCc4c(n(c5ccccc45)C(=O)C1)[C@@H]32 -14.2%, CC1CCc2nc3ncn(CC(=O)Nc4cccc(C#N)c4)c(=O)c3cc2C1 (stereo not given) -8.92%, COc1cccc(NC(=O)c2cn(C3CCCCC3)c(=O)c3c2c2ccccc2n3C)c1 -18.1%, CCCCNC(=O)C(CC)Sc1nnc(-c2ccc(OC)c(OC)c2)c(-c2ccc(OC)c(OC)c2)n1 (stereo not given) -13.6%, Cc1ccc(-c2ccc(=O)n(C(C)C(=O)Nc3ccccc3Cl)n2)cc1C (stereo not given) -11.3%, CCn1cc(C(=O)O)c(=O)c2cc(F)c(N3CCN(C)CC3)cc21 -10.9% [at 23.8 µM], COc1ccccc1-c1nn(CCC(=O)Nc2cccc(C(C)=O)c2)c2nc(C)cc(C)c12 -7.72%, COc1ccc(S(=O)(=O)N(CC(=O)N2CCC(C)CC2)c2ccc(C)cc2)cc1 -2.64%, CCOC(=O)c1sc2ncn(CC(=O)Nc3ccc(C)cc3C)c(=O)c2c1C -9.53%, Cc1cc(C)c(/C=C/c2onc(C)c2S(=O)(=O)N2CCC(C(=O)N3CCN(c4ccccc4)CC3)CC2)c(C)c1 -14.5%, COC(=O)c1ccc(Cn2c(SCc3cccc(C)c3)nc3ccncc32)cc1 -14.2%, COc1ccc(C(=O)NCC(c2cccs2)S(=O)(=O)c2ccc(C)cc2)cc1 (stereo not given) 2.65%, CCc1ccccc1Nc1nn2c(=O)c3ccc(C(=O)Nc4cc(C)cc(C)c4)cc3nc2s1 -23.9%, Cc1cc(N2CCC(C)CC2)nc2ccc(NC(=O)CCC(=O)N3CCN(c4cccc(C(F)(F)F)c4)CC3)cc12 -9.79%, COc1cc(Cl)c(C)cc1NC(=O)CN1c2ccccc2S(=O)(=O)c2ccccc21 -4.19%, CCc1cccc(CC)c1NC1=NS(=O)(=O)c2ccccc21 -12.9%, CC(C)OCCCN1C(=O)c2[nH]nc(-c3ccccc3O)c2C1c1ccc(OCc2ccccc2)cc1 (stereo not given) 0.136%, CCOc1ccccc1NC(=O)C(C)Sc1nc2c(c(=O)[nH]1)CCCC2 (stereo not given) -11%, Cc1ccc(CC(=O)Nc2c(C(=O)N3CCN(c4ccccc4F)CC3)oc3ccccc23)cc1 -19.1%, Cc1ccc(NS(=O)(=O)c2ccc3c(c2)NC(=O)CCS3)c(Br)c1 -36.6%, Cc1nn(C)c2c1c(C(F)(F)F)cc(=O)n2CC(=O)NCc1ccccc1Cl -7.75%, Cc1cc(F)ccc1NC(=O)c1sc2nc(-c3cccs3)ccc2c1N -18%, Cc1ccc2c(=O)cc(C(=O)Nc3nnc(C)s3)oc2c1 -17.4%, CN1C(C(=O)Nc2ccc(F)cc2F)=CC(c2cccs2)=NS1(=O)=O -11.2%, CCn1nc(-c2ccccc2)c(-c2ccccc2)c(C(=O)OCCOC)c1=O 2.5%, Cc1oc(-c2ccccc2)nc1CNC(=O)Nc1ccccc1 -9.32%, CCOC(=O)C1=C(CN2CCC(C(=O)OCC)CC2)NC(=O)NC1c1ccc(Cl)cc1 (stereo not given) -34.4%, Cc1ccc(NCc2nnc3n2CCCCC3)cc1Cl -22%, CCOCCCNC(=O)CCc1nnc2ccc(N3CCN(c4cccc(OC)c4)CC3)nn12 -0.541%, CCOC(=O)c1ccccc1NC(=O)CCc1c(C)nc2ncnn2c1C -11.2%, Cc1cccc(NC(=O)CSc2nc3c([nH]c4ccccc43)c(=O)n2C)c1 -3.19%, CCOc1ccc(-n2c(=O)c3c(C)c(C(=O)N(C)C)sc3n(CC(=O)Nc3c(C)cc(C)cc3C)c2=O)cc1 -4.82%, COc1ccc2c(Sc3ccc(Cl)cc3)c(C(=O)NCCCN3CCCCC3)[nH]c2c1 -31.5%, Cc1ccc(CN(C(=O)COc2ccc(C)c(C)c2)C2CCS(=O)(=O)C2)o1 (stereo not given) -5.18%, CCOc1ccc(S(=O)(=O)N2CCN(c3ccccc3)CC2)cc1C(N)=O -12.1%, Cc1ccc(Nc2c(-c3ccccc3O)nc3ccc(Br)cn23)cc1 -10.8%, CC(C)N(C(=O)Cn1cc(S(=O)(=O)Cc2ccc(C(F)(F)F)cc2)c2ccccc21)C(C)C -10%, COc1ccc(S(=O)(=O)Nc2cc(-c3cn4ccccc4n3)ccc2C)cc1 -19%, COc1ccc(NC(=O)Nc2nnc(N(C)C3CCCCC3)s2)c(OC)c1 -13.5%, O=C(NCCc1ccccc1)c1c[nH]c2ccc(S(=O)(=O)Nc3ccccc3F)cc2c1=O -13.5%, COc1cc(C(=O)Nc2ccc(OCc3cc(=O)n4cc(C)sc4n3)cc2)cc(OC)c1OC 5.37%, Cc1ccccc1NC(=O)CSc1nc2c(oc3ccccc32)c(=O)n1-c1ccccc1F -8.62%, CC1CCN(C(=O)c2cc(-c3ccc(Cl)cc3)on2)CC1 -10.2%, CCOC(=O)c1sc(NC(=O)COc2ccccc2Cl)c(C(=O)OCC)c1C -14.8%, O=C(Nc1ccc(O)c(-c2nc3ccccc3o2)c1)c1ccco1 0.0647%, CCc1ccc(S(=O)(=O)c2nnn3c2nc(NC2CCCC2)c2sccc23)cc1 -10.2%, COc1ccc(C)cc1NC(=O)CCS(=O)(=O)c1ccc2c(c1)CC(=O)N2C -5.92%, COc1ccc(CCNC(=O)CCc2c(C)nc3nc(C)nn3c2C)cc1OC 2.15%, COc1cc(OC)c(NC(=O)Nc2ccccc2OCc2cc(=O)n3cc(C)ccc3n2)cc1Cl -0.543%, COCCNC(=O)c1cc(Sc2ccc(F)cc2F)nc2ccccc12 -11.3%, CC1=C(C(=O)OCC2CCCCC2)C(c2c(F)cccc2Cl)CC(=O)N1 (stereo not given) -13.2%, Cc1cccc(-n2c(=O)c3c(c4cc(C)ccc4n3C)n(Cc3ccccc3F)c2=O)c1 -15.5%, COc1ccc(Cn2c(SCc3ccc(C(=O)NCc4ccccc4F)cc3)nc3cccnc32)cc1 -9.7%, O=C(CSc1ccc2ccccc2n1)Nc1nsc(-c2ccc(Cl)cc2)n1 -26%, O=C(c1ccc2c(c1)N(Cc1ccc(F)cc1)C(=O)c1ccccc1S2(=O)=O)N1CCC(Cc2ccccc2)CC1 -10.4%, COc1ccc(-n2ccn(Cc3ccc(C)cc3)c(=O)c2=O)cc1OC -6.08%, CC(=O)N1c2nc(-c3ccco3)nn2C2(CCCCC2)[C@@H]2CCCC[C@@H]21 -9.28%, COc1ccc(NC(=O)CN(C)S(=O)(=O)c2ccc3[nH]c4c(c3c2)CCCC4)cc1Cl -11.1%, COc1ccc(-c2noc(N3CCC(C(=O)Nc4ccc(C)c(F)c4)CC3)n2)cc1OC -6.64%, COc1ccc(Cl)cc1NC(=O)CCCn1c(C)c2cnn(-c3ccccc3)c(=O)c2c1C -2.77%, Cc1ccc(Cl)cc1N1C(=O)N(Cc2ccc(C#N)cc2)c2ccccc2S1(=O)=O -5.26%, COc1ccc(C2=Nc3ccc(C)cc3NC(c3ccc(Cl)cc3)=N2)cc1 -12.3%, COc1ccc(CNC(=O)c2cccc(NC(=O)N3CCSc4ncccc43)c2)cc1 -7.61%, Cc1ccc(NC(=O)CC2Nc3cccc4cccc(c34)NC2=O)cc1 (stereo not given) 4.07%, CCCCNC(=O)CSc1nc2ccccc2nc1Cc1ccc(Cl)cc1 -12.3%, CCOc1cccc2cc(-c3nc4sc5c(c4c(=O)[nH]3)CCC(C)C5)c(=O)oc12 (stereo not given) -13.8%, COc1ccc(NC(=O)CCNS(=O)(=O)c2cccc3nsnc23)cc1OC -5.75%, COc1ccc(N(Cc2ccccc2)C(=O)c2nc(SC)ncc2Cl)cc1 -13.8%, COc1cccc(Cn2c(=O)n(-c3ccc(Br)cc3F)c(=O)c3sc4ccccc4c32)c1 -7.85%, Cc1ccc2nc(N(CCCN(C)C)C(=O)c3ccc(Br)s3)sc2c1 -10%, CCCOc1cccc(C(=O)N(Cc2cc(OC)c(OC)c(OC)c2)C2CCS(=O)(=O)C2)c1 (stereo not given) -22.5%, CCn1c(CN2CCC(C)CC2)nc2cc(NC(=O)COc3ccc([N+](=O)[O-])cc3)ccc21 -18%, CC(C)c1ccc(NC(=O)c2cccn2-c2nnc(N3CCCCC3)s2)cc1 -31.2%, Cc1ccc(OCCn2nnc3sc4c(c3c2=O)CCC(C(C)(C)C)C4)cc1 (stereo not given) -0.253%, NS(=O)(=O)c1ccc(CCNc2nc3c(-c4cccc(F)c4)nnn3c3ccc(Cl)cc23)cc1 -13.7%, CCOc1ccccc1NC(=O)Cn1nnc2sc3c(c2c1=O)CCC(C(C)(C)C)C3 (stereo not given) -14.7%, COc1ccc(NC(=O)Cn2cc(C(=O)C3CC3)c3ccccc32)cc1 -15.3%, CCN1CCN(C(=O)c2ccc3c(c2)N(Cc2cc(C)ccc2C)C(=O)c2ccccc2S3=O)CC1 (stereo not given) -10.5%, COC(=O)c1cc(NC(=O)CN(c2ccccc2)S(=O)(=O)N(C)C)ccc1Cl -6.94%, Cc1cc(C)c(/C=C/c2onc(C)c2S(=O)(=O)N2CCC(C(=O)NCc3ccco3)CC2)c(C)c1 -10.9%, O=C(CN1C(=O)C2(SCC(=O)N2c2cccc(Cl)c2)c2ccccc21)NC1CCCCC1 (stereo not given) -18.3%, CCOC(=O)c1c(C)[nH]c(C)c1S(=O)(=O)N(C)CC(=O)N1CCN(c2ccccc2OC)CC1 2.06%, CCOC(=O)N1CCN(C(=O)CN(c2ccc(C)cc2C)S(=O)(=O)c2ccccc2)CC1 2.54%
